From US20200131584A1 (CHINESE UNIVERSITY OF HONG KONG, published 2020)

Target: T1, JAK2 (UniProt O60674 1-1132)
T1 construct: Detected and immunoprecipitated with the anti-JAK2 antibody (Cell Signaling #9945S); also called endogenous JAK2
Assay: co-IP in cells expressing DLEC1-3Y vs wild-type DLEC1

- binding result: binds
B1: STAT3 (other)
chain: not shown
notes: Detected and immunoprecipitated with the anti-STAT3 antibody (Cell Signaling #9139S); also called total STAT3
